# Measured values reported in PubChem BioAssay AID686979 (National Center for Advancing Translational Sciences (NCATS), 2013).
# “And” between values parts separate entries of the source, which are not always exact repeats. Equal values may be shown once. Among all 420,000 compounds or so, about 50,000 (12%) were called active. Inconclusive means that the source gave no clear call. Such entries were picked first, then a sample of the others. Calls follow the shape of the dose curve; as a rule, active = well fitted inhibition curve with a large enough effect; inconclusive = small, poorly fitted or top-dose-only effect; inactive = flat fitted curve, though single readings scatter. Potencies of inconclusive entries are left out as doubtful fits.
# Assay: qHTS for Inhibitors of human tyrosyl-DNA phosphodiesterase 1 (TDP1): qHTS in cells in presence of CPT; also: nearly all actives have a fitted effect of over 55% in size
# Details: chicken DT40 Tdp1-/-;hTDP1 cells + 20 nM CPT, ATP luminescence, 48 h; series mostly up to 46.2 µM
# Outline: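 Chicken DT40 Tdp1-/- cells complemented with human TDP1, 400 cells/well, exposed to compounds plus 20 nM camptothecin for at least 48 h at 37 C; viability read as ATP content by CellTiter-Glo luminescence.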
# Potency is read from the fitted curve at half-maximal effect; tags tell the direction and shape of the fitted curve.
row,SMILES,Potency
1,COc1ccc(-n2c(=S)[nH]c3cc(C(=O)Nc4cc(OC)c(OC)c(OC)c4)ccc3c2=O)c(OC)c1,"inconclusive [inhibitor, single point]"
2,CCCn1c(C(C)Nc2nc(C)cs2)nc2cc(Cl)c(Cl)cc21 (stereo not given),"inconclusive [inhibitor, single point]"
3,O=C(CCC1N=C2c3ccccc3N=C(SCc3ccc(Cl)cc3)N2C1=O)NCCc1ccccc1 (stereo not given),active: 18.4 µM
4,COc1cccc(-c2ccc3c(N)c(C(=O)NC4CC4)sc3n2)c1,"inconclusive [inhibitor, single point]"
5,O=C(Nc1ccccc1N1CCN(C(=O)c2ccc(Cl)cc2)CC1)c1cccnc1,"inconclusive [inhibitor, partial curve]"
6,CCC(NC(=S)NCc1ccccc1)C(=O)O (stereo not given),inactive
7,Cc1ccccc1C(=O)NC(=S)N(C)C1CCCCC1,"inconclusive [inhibitor, single point]"
8,c1cc2c(cc1C1CCCCC1)c1c3n2CCCNC3CCC1 (stereo not given),active: 7.31 µM
9,N#Cc1c(-c2ccccc2)cc(-c2ccc(O)cc2)nc1N,"inconclusive [inhibitor, single point]"
10,O=C(COC(=O)c1ccccc1-n1cnnn1)c1ccccc1,inactive
11,COC(=O)CSc1nnc2cc(C)c3ccccc3n12,inactive
12,O=C(Nc1ccc(F)cc1)c1ccccc1Oc1ccc(C(F)(F)F)cc1[N+](=O)[O-],"inconclusive [inhibitor, single point]"
13,Fc1ccc(NC(=S)N2CCN(c3cccc(C(F)(F)F)c3)CC2)cc1,active: 20.6 µM
14,COc1cc2nc(SCC(=O)Nc3c(C)cc(C)cc3C)n3nc(CCn4c(C)nc5ccccc54)nc3c2cc1OC,"inconclusive [inhibitor, single point]"
15,CS(=O)(=O)c1ccc2nc(NC(=O)c3ccccc3)sc2c1,inactive
16,Cc1cccc(OCCCCc2c(C)n[nH]c2C)c1,"inconclusive [inhibitor, single point]"
17,O=C(CNS(=O)(=O)c1ccc2ccccc2c1)OCc1nnc(-c2ccccc2)o1,"inconclusive [inhibitor, single point]"
18,CCOc1ccc(NCc2nc3ccccc3n2CCOc2ccccc2)cc1,"inconclusive [inhibitor, single point]"
19,CCCCCCCCCCCCN1[C@@H](CC(C)=O)c2cc(C(F)(F)F)ccc2S1(=O)=O,"inconclusive [inhibitor, single point]"
20,Cc1nn(Cc2c(Cl)cccc2Cl)c(C)c1NC(=O)CCCn1nc([N+](=O)[O-])c(Cl)c1C,"inconclusive [inhibitor, single point]"
21,CCc1ccc(-c2cc(C)no2)cc1S(=O)(=O)N1CC(=O)Nc2ccccc21,"inconclusive [inhibitor, single point]"
22,O=C(NN1CCOCC1)c1cc(-c2ccc(Br)s2)nc2ccccc12,"inconclusive [inhibitor, full curve]"
23,FC(F)(F)c1ccc(NCc2ccccn2)nc1,inactive
24,CCOc1cc(/C=N/Nc2cc(C)nc(-n3nc(C)cc3C)n2)ccc1O,active: 2.59 µM

row,SMILES,Potency
1,O=C(Nc1ccccc1OC(=O)c1ccc(Cl)cc1)c1ccc(Cl)cc1,"inconclusive [inhibitor, single point]"
2,CCOC(=O)C1(CCc2ccccc2)CCN(C(=O)c2cccc(C)n2)CC1,"inconclusive [inhibitor, single point]"
3,Cc1cc(C(=O)COC(=O)c2ccccc2Br)c(C)n1CC1CCCO1 (stereo not given),"inconclusive [inhibitor, single point]"
4,COc1cccc(C(=O)NCC2CCN(c3ccc(S(=O)(=O)N4CCOCC4)cc3)CC2)c1,"inconclusive [inhibitor, partial curve]"
5,CN(C)CCCN1C(=O)C(O)=C(C(=O)c2cc3ccccc3o2)C1c1ccccc1 (stereo not given),inactive
6,COc1cccc(Cn2nnc(C(=O)Nc3cc(Cl)ccc3OC)c2N)c1,active: 23.1 µM
7,CCOc1ccc(NS(=O)(=O)c2cc3c4c(c2)C(C)C(=O)N4CCC3)cc1 (stereo not given),"inconclusive [inhibitor, single point]"
8,Cc1c(NC(=O)Nc2ccc(Br)cc2F)sc2nc3n(c(=O)c12)CCC(C)CC3 (stereo not given),active: 3.66 µM
9,COc1ccccc1CNC(=O)CCn1c(=O)c2ccccc2n(CC(=O)Nc2ccc(C)cc2Cl)c1=O,"inconclusive [inhibitor, single point]"
10,Fc1ccc(C(NCCc2ccc(Cl)cc2)c2nnc(-c3ccccc3)o2)c(Cl)c1 (stereo not given),"inconclusive [inhibitor, single point]"
11,O=[N+]([O-])c1cc(CN(CCO)CCO)ccc1O,inactive
12,CCOC(=O)C(=C1Nc2ccccc2N1)n1c(-c2cnccn2)nc2ccccc21,inactive
13,CCCn1c2ccccc2c2cnn(CC(=O)N(C)c3ccccc3CC)c(=O)c21,"inconclusive [inhibitor, single point]"
14,Cn1c(N)c(C(=O)COC(=O)c2cccc(S(=O)(=O)NCc3ccccc3)c2)c(=O)n(C)c1=O,"inconclusive [inhibitor, single point]"
15,CCOC(=O)N1CCN(S(=O)(=O)c2ccc(C(=O)Nc3sc4c(c3C#N)CCC4)cc2)CC1,inactive
16,Cc1csc(NC(=O)c2ccc3ccccc3n2)n1,"inconclusive [inhibitor, single point]"
17,Cc1nn2c(=O)cc(CSc3nc4ccccc4[nH]3)nc2s1,inactive
18,CCc1nc(SCC(=O)Nc2nnc(CC)s2)c2c(=O)n(C)c(=O)n(C)c2n1,active: 6.51 µM
19,CCCCCC(=O)N1CCCC(c2nc(-c3ccc(OC)cc3)no2)C1 (stereo not given),"inconclusive [inhibitor, single point]"
20,Cc1ccc(C(=O)N[C@H](C(=O)Nc2ccc(N3CCOCC3)cc2)C(C)C)cc1,inactive
21,Cc1ccc(-c2nc3cnccn3c2Nc2c(C)cccc2C)o1,active: 17.8 µM and active: 5.8 µM
22,C=C1C=C(C)n2ncc(C(=O)N(CCc3ccccc3)Cc3ccccc3)c2N1,"inconclusive [inhibitor, single point]"
23,COc1ccccc1N1CCN(C(=O)CCCCCn2c(=S)[nH]c3cc4c(cc3c2=O)OCO4)CC1,"inconclusive [inhibitor, partial curve]"
24,CC(C)c1ccc(N=C(N)N=C(N)N)cc1,"inconclusive [inhibitor, single point]"

row,SMILES,Potency
1,Cc1c(Cc2ccccc2)sc(NC(=O)/C=C/c2cccc3ccccc23)c1C(N)=O,active: 3.66 µM
2,CC(=O)c1cccc(Nc2nc(-c3sc(C)nc3C)cs2)c1,"inconclusive [inhibitor, single point]"
3,O=C(NCc1ccccc1)c1ccc(-c2cn[nH]c2)c2ccoc12,inactive
4,COc1cc(O)c2c(=O)c3c(O[C@H]4O[C@@H](CO)[C@H](O)[C@@H](O)[C@@H]4O)ccc(O)c3oc2c1,inactive
5,CC(C)CCn1c(COc2ccccc2)nn(CCC#N)c1=S,"inconclusive [inhibitor, single point]"
6,Cc1c(Cl)cccc1NC(CC(=O)c1ccccc1)C(=O)OCC(=O)c1cccs1 (stereo not given),"inconclusive [inhibitor, single point]"
7,CCOc1ccc(C(=O)Nc2cccc(-c3ccc(N4CCOCC4)nn3)c2)cc1OCC,"inconclusive [inhibitor, single point]"
8,COc1ccc(S(=O)(=O)N(C)CC(=O)Nc2cccc(C(C)=O)c2)cc1C,"inconclusive [inhibitor, partial curve, poor fit]"
9,CCOc1ccc(N(CC(=O)NCCSCc2ccco2)S(=O)(=O)c2ccc(F)cc2)cc1,"inconclusive [inhibitor, single point]"
10,O=C(COC(=O)CCNS(=O)(=O)c1ccccc1)NC(=O)c1ccccc1,inactive
11,CN(C)CCCN(C(=O)c1ccc(Br)s1)c1nc2ccc(F)cc2s1,"inconclusive [inhibitor, single point]"
12,CCOc1ccc(C(=O)c2cn(CC(=O)Nc3ccc(F)cc3)c3cc4c(cc3c2=O)OCO4)cc1,"inconclusive [inhibitor, partial curve]"
13,Cc1ccc(OCCN2CCC2(C)C(=O)Nc2ccc3c(c2)OCO3)cc1 (stereo not given),inactive
14,CCS(=O)(=O)c1ccc(O)c(NC(=O)c2ccc(S(=O)(=O)N3CCCCCC3)cc2)c1,inactive
15,CCOc1ccccc1CNC(=O)CCCn1ncn2c(cc3occc32)c1=O,"inconclusive [inhibitor, single point]"
16,COc1ccc(CCNC(=O)Cn2c(=O)nc(-c3ccccc3)c3ccccc32)cc1OC,inactive
17,CCOC(=O)c1c(C)[nH]c(C(=O)COC(=O)COc2ccccc2C=O)c1C,"inconclusive [inhibitor, single point]"
18,O=C(O)/C(=C\c1ccc(C(F)(F)F)cc1)c1ccc(S(=O)(=O)N2CCCC2)s1,inactive
19,Cn1cccc1C(=O)N1CCC2(CCN(Cc3ccccc3)CC2)CC1,inactive
20,COc1ccc(N(CC(=O)NCc2ccccc2Cl)S(=O)(=O)c2c(C)nn(C)c2C)cc1,inactive
21,O=C(Nc1cccnc1)c1ccco1,"inconclusive [inhibitor, single point]"
22,COc1ccccc1N1CCN(Cc2cccc(OC)c2OC)CC1,"inconclusive [inhibitor, partial curve]"
